PubChem BioAssay AID1346428 (National Center for Advancing Translational Sciences (NCATS), 2018)
Where “and” joins values, the source holds several entries; their conditions need not be identical. Identical values can stand only once. Screen size: about 48,000 compounds; about 1,200 (2.5%) were called active. Roughly 2% stayed inconclusive and do not appear here.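 Rule for the calls: active = activation of at least 60% and not above a set upper limit (about 1 call in 100 departs from these limits); inconclusive = activation of 40% to 60%, or above that upper limit; inactive = activation under 40%.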 The list shows a part of the results. More than one record can exist for a structure, and the calls need not agree.
Note: 0% is about no effect.

Each compound was assayed against Probable G-protein coupled receptor 32 (Homo sapiens) (UniProt O75388) (assay: qHTS for Agonists of Human Resolvin D1 Receptor DRV1). Settings: CHO-K1 GPR32 beta-arrestin PathHunter luminescence, 90 min; at 76.9 µM; stronger effect = higher value; zero percent set by DMSO-only wells.
Chain of UniProt O75388 (O75388 whole entry, looked up, the tested form may be a part): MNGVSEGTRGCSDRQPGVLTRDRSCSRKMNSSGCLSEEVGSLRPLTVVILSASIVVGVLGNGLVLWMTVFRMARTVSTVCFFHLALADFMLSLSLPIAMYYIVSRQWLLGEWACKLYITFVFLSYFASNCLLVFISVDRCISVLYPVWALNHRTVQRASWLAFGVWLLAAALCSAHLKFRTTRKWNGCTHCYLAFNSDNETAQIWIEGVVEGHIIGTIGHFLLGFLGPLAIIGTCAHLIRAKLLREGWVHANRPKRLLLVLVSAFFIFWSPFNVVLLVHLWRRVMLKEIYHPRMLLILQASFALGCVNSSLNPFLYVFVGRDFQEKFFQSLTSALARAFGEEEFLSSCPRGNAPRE
Summary of the method: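 Agonism was scored by beta-Gal fragment complementation (chemiluminescent read, 1 h detection at ambient temperature) reporting beta-arrestin binding to GPR32 in engineered CHO-K1 cells. Compound treatment lasted 90 min at 37 C, normalized to a DMSO basal control.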
With `COc1cccc(C(c2sc3nc(-c4ccco4)nn3c2O)N2CCC(C)CC2)c1` (centres undefined) the activation was inactive: 3.87%. `O=C(CSc1ccnc(=O)[nH]1)NCc1ccc(F)cc1` was tested, and the activation was inactive: -14.8%. For `CCCn1c(=O)c2c(ncn2C)n(CCC)c1=O`, the activation was inactive: 4.89%. With `CCC1CN(C(=O)NCc2ccc(F)cc2)c2cc(C)ccc2O1` (centres undefined) the activation was inactive: -33.8%. `CCOC(=O)C1CCN(C(=O)Cn2nc(C)n3c(cc4c(OC)cccc43)c2=O)CC1` was tested, and the activation was inactive: -3%. `CCOc1ccc2c(c1)c(=O)c(C(=O)c1ccc(CC)cc1)cn2CC(=O)Nc1ccc2c(c1)OCCO2` was tested, and the activation was inactive: 24.1%. With `COc1cc(C2C=C(C(=O)O)Nc3ncnn32)ccc1O` (centres undefined) the activation was inactive: 3.02%. In the case of `COc1ccc(Cl)cc1NC(=O)Cn1c(=O)n2nc(-c3ccccc3)nc2c2ccccc21`, the activation is reported as inactive: -6.46%. With `COc1cccc(NC(=O)Cn2c(=O)n(CCC(=O)NCc3ccccc3OC)c(=O)c3ccccc32)c1` the activation was inactive: 0.337%. For `Cc1ccc(NC(=O)Cn2cc3c(n2)CCCC3)cc1Cl`, the activation was inactive: -8.38%. In the case of `COc1ccc(C)c2sc(N(Cc3cccnc3)C(=O)c3cccs3)nc12`, the activation is reported as inactive: -22.4%. `CCN1CCc2c(sc(-n3cccc3)c2C(C)NC(=O)Nc2ccc(C(=O)OC)cc2)C1` (centres undefined) was tested, and the activation was inactive: -13.9%. With `O=C(Nc1cccc(F)c1)c1cnc2sc(N3CCCC3)nn2c1=O` the activation was inactive: 0.837%. `COc1ccc(-c2csc(-c3c(N)c(C(=O)c4ccc(OC)c(OC)c4)n4ccccc34)n2)cc1` was tested, and the activation was inactive: 4.95%. For `COc1ccc(CNS(=O)(=O)c2ccc(-c3cc(C(F)(F)F)on3)s2)cc1OC`, the activation was inactive: -1.24%. `COc1ccc(CNC(=O)c2nn(C)c3c2CSc2ccccc2-3)cc1` was tested, and the activation was inactive: -15.1%. With `COC(=O)c1c(C)oc2ccc(N(C(=O)c3ccncc3)S(=O)(=O)c3ccc(Br)cc3)cc12` the activation was inactive: 11.3%. In the case of `COc1ccc(NC(=O)c2ccco2)cc1NC(=O)c1ccccc1[N+](=O)[O-]`, the activation is reported as inactive: -31.4%. `Cc1ccc(NC(=O)Cn2c(=O)n(Cc3ccccc3)c(=O)c3c(C)c(C(=O)N(C)C)sc32)c(C)c1` was tested, and the activation was inactive: -8.33%. With `COc1ccc(N(C)S(=O)(=O)c2ccc3c(c2)CCN3C(=O)CCC(=O)O)cc1` the activation was inactive: -1.09%. For `CCOC(=O)c1ccc(N2C(=O)c3n[nH]c(-c4ccco4)c3C2c2ccccc2OC)cc1` (centres undefined), the activation was inactive: 33.8%. In the case of `CCN1CCN(C(=O)N[C@@H](C(=O)N[C@@H]2C(=O)N3C(C(=O)O)=C(CSc4nnnn4C)CS[C@H]23)c2ccc(O)cc2)C(=O)C1=O`, the activation is reported as inactive: 37.8%. With `CCc1cccc(C)c1Nc1nn2c(=O)c3ccccc3nc2s1` the activation was inactive: -24.4%. With `O=C(NCCO[N+](=O)[O-])c1cccnc1` the activation was inactive: 11.4%. With `Cc1cccc(OC(=O)CSc2nnc(-c3cccs3)o2)c1C` the activation was inactive: -3.45%. For `Cc1ccc(-n2ncc(C(=O)N3CCN(c4ccccc4F)CC3)c2C2CCN(C(=O)OC(C)(C)C)CC2)cc1C`, the activation was inactive: -12.9%. In the case of `CSc1ncc(Cl)c(C(=O)Nc2c(C(=O)c3ccc(Cl)cc3)oc3ccccc23)n1`, the activation is reported as inactive: -2.02%. For `CCOC(=O)c1c(S(=O)(=O)N2CCCC(C(=O)Nc3cccc(CC)c3)C2)c(C)n(CC)c1C` (centres undefined), the activation was inactive: -0.915%. `CCOC(=O)c1c(C)[nH]c(C)c1S(=O)(=O)NCC(=O)Nc1cccc(Cl)c1` was tested, and the activation was inactive: 7.73%. With `Cc1c(NC(=O)Cc2ccc(Cl)cc2)cccc1-c1nc2cccnc2s1` the activation was inactive: -9.35%. `CCOc1ccc(CNC(=O)c2ccc(NC(=O)N3CCCCc4ccccc43)cc2)cc1` was tested, and the activation was inactive: -9.04%. `Cc1c(CNC2CCCCCC2)c(C(=O)O)c(C)n1Cc1cccc(Cl)c1` was tested, and the activation was inactive: -17.4%. With `Cc1cccc(CNC(=O)Cn2nc(C)c3nn(-c4ccc(Cl)cc4)c(C)c3c2=O)c1` the activation was inactive: -11.3%. `Cc1cc(C)cc(NC(=O)NCc2c(-n3cccc3)sc3c2CCCC3)c1` was tested, and the activation was inactive: -7.72%. For `O=C(CSc1nc(Nc2ccccc2)c2ccccc2n1)c1ccc(Cl)cc1`, the activation was active: 108%. For `Cc1ccc(Cl)c(Nc2ccccc2C(=O)O)c1Cl`, the activation was active: 103% and inactive: 20%. For `Cc1ccccc1Nc1c(-c2c[nH]c3ccccc23)nc2ccc(Cl)cn12`, the activation was inactive: 10.9%. `COC(=O)c1scc(-c2ccc(C)cc2)c1S(=O)(=O)Nc1cc(C)c(Cl)cc1OC` was tested, and the activation was inactive: -17.9%. For `Clc1cccc(CNCCCSc2nnnn2-c2ccccc2)c1`, the activation was inactive: -14.4%. For `CCCCOC(=O)c1ccc(NC(=O)c2ccc3c(c2)CCN3S(C)(=O)=O)cc1`, the activation was inactive: 1.85%. `Cc1cccc(C(c2sc3nc(-c4ccco4)nn3c2O)N2CCOCC2)c1` (centres undefined) was tested, and the activation was inactive: 31.4%. In the case of `CC(=O)N1CCN(c2csc3ccc(Cl)cc3c2=O)CC1`, the activation is reported as inactive: -54.1%. `Cc1ccc(NS(=O)(=O)c2ccc3c(c2)n(C)c(=O)n3C)c(C)c1` was tested, and the activation was inactive: 6.25%. `Cc1cccc(N2CCN(C(=O)CCS(=O)(=O)c3ccc4c(c3)CC(=O)N4C)CC2C)c1` (centres undefined) was tested, and the activation was inactive: -1.25%. With `Fc1cccc(CN2CCc3nc(Nc4ccc5c(c4)OCCO5)ncc3C2)c1F` the activation was inactive: -2.38%. For `Cc1ccccc1S(=O)Cc1ccc(C(=O)NCc2ccccc2Cl)o1` (centres undefined), the activation was inactive: 12.7%. `Cc1ccc(CSC2=NC(C)(C)Nc3ccccc32)c(C)c1` was tested, and the activation was inactive: 47%. In the case of `COc1ccc(-c2csc3ncnc(Nc4ccccc4)c23)cc1`, the activation is reported as inactive: 12.6%. `O=C(Cn1cc(C(=O)c2ccco2)c2ccccc21)Nc1ccccc1C(F)(F)F` was tested, and the activation was inactive: 34.8%. `CCNc1nc2c(c(=O)n(C)c(=O)n2C)n1Cc1ccc(F)cc1` was tested, and the activation was inactive: 27.4%. In the case of `O=C(NCCc1cccs1)c1ccc(Cn2c(SCc3cccc(F)c3)nc3cccnc32)cc1`, the activation is reported as inactive: -19%. In the case of `COc1ccc(NC(=O)Cn2cc(C(=O)c3ccc(C)c(C)c3)c(=O)c3cc(OC)ccc32)cc1`, the activation is reported as inactive: -6.8%. In the case of `COc1ccc(-c2noc(N3CCC(C(=O)N4CCN(c5cccc(OC)c5)CC4)CC3)n2)cc1`, the activation is reported as inactive: 1.17%. `CCOc1ccccc1NC(=O)Cn1c(=O)oc2ccccc21` was tested, and the activation was inactive: -11.9%. `CCOC(=O)c1c(-c2ccccc2)oc2ccc(OCc3ccccc3Br)cc12` was tested, and the activation was inactive: -1.34%. `CCOc1cccc2sc(NC(=O)c3ccc(S(=O)(=O)N4CCCCC4C)cc3)nc12` (centres undefined) was tested, and the activation was inactive: -7.1%. In the case of `CCN(c1cccc(C)c1)S(=O)(=O)c1cc2c(cc1C)n(C)c(=O)c(=O)n2C`, the activation is reported as inactive: -11.3%. With `Cc1nnc(NC(=O)c2nc(SC(C)C)ncc2Cl)s1` the activation was inactive: 21.3%. In the case of `CCOc1ccc(NC(=O)c2sc(-n3nc(C)c(Cc4ccc(Cl)cc4)c3C)nc2C)cc1`, the activation is reported as inactive: -1.85%. `Clc1ccccc1Cn1c(-c2cccs2)nc2ccccc21` was tested, and the activation was inactive: 11.7%. For `O=C(c1cc(-c2ccc(Cl)cc2)n[nH]1)N1CCN(S(=O)(=O)c2ccc(Br)s2)CC1`, the activation was inactive: 4.17%. `CCOC(=O)c1c(C)[nH]c(C)c1S(=O)(=O)N1CCN(c2cc(Cl)ccc2C)CC1` was tested, and the activation was inactive: 10.3%. With `CCOC(=O)c1c(-c2ccc(C)cc2)csc1NC(=O)c1cc(-c2ccc(OC)cc2)on1` the activation was inactive: 19.5%. `CCc1cccc(NC(=O)c2ccc3c(c2)N(Cc2cccc(Cl)c2)C(=O)c2ccccc2S3=O)c1` (centres undefined) was tested, and the activation was inactive: -7.12%. In the case of `Cc1cccc(N(C)C(=O)CCS(=O)(=O)c2ccc3c(c2)n(C)c(=O)c(=O)n3C)c1`, the activation is reported as inactive: -17.9%. In the case of `Cc1cc(Nc2cccc(C(=O)O)c2)n2nc(C)nc2n1`, the activation is reported as inactive: 3.33%. For `COc1ccc(CCNS(=O)(=O)c2c(C)nc3sc(C)cn3c2=O)cc1OC`, the activation was inactive: -3.3%. In the case of `Cc1cccc(NC(=O)CN(C)S(=O)(=O)c2ccc3c(c2)c(=O)n(C)c(=O)n3C)c1C`, the activation is reported as inactive: -3.16%. In the case of `COc1ccc(CCNC(=O)c2ccc3c(c2)N=C(C)c2ccccc2S3)cc1OC`, the activation is reported as inactive: -5.01%. For `COc1ccc(-c2nc3ccccc3o2)cc1NC(=O)c1cccnc1`, the activation was active: 86.1%. `CCCn1c2ccccc2c2cnn(CC(=O)NCCN(CC)CC)c(=O)c21` was tested, and the activation was inactive: -17%. For `COc1ccc(NC(=O)NC(C)c2c(-n3cccc3)sc(C)c2C)cc1OC` (centres undefined), the activation was inactive: -17.6%. With `CCOc1c(Cl)cc(CNc2ccc3[nH]c(=O)[nH]c3c2)cc1OC` the activation was active: 85.3%. In the case of `CCCCOc1ccc(C(=O)Nc2cc(-c3cn4cccnc4n3)ccc2OC)cc1`, the activation is reported as inactive: -0.298%. For `Cc1ccc(CNC(=O)c2ccc3c(c2)c(C)c(C)n3Cc2ccc(Cl)cc2)o1`, the activation was inactive: -29.7%. With `COc1cc(-c2cc(OC)c3c(C)oc(C)c3c(=O)c2)ccc1OC(=O)c1cccc(C)c1` the activation was inactive: -18.2%. With `Cc1nn(S(=O)(=O)c2ccc(F)cc2)c(C)c1S(=O)(=O)N1CCCCCC1` the activation was inactive: -5.61%. For `CCCc1cc(=O)[nH]c(SCc2nc(-c3ccc(OCC)cc3)no2)n1`, the activation was inactive: -12.1%. With `Cc1ccc(-c2noc(-c3ccc(N4CCCC4)c([N+](=O)[O-])c3)n2)cc1` the activation was inactive: 17.5%. `CC(NN)c1ccccc1` (centres undefined) was tested, and the activation was inactive: 5.43%. For `Cc1ccc(C(=O)Nc2c(C(=O)Nc3ccc(C)c(C)c3)sc3nc(C)cc(C)c23)cc1`, the activation was inactive: -10.6%. In the case of `CCOc1ccc(C2C(C(=O)Nc3ccc(OC)cc3)=C(C)Nc3nc(CCCO)nn32)cc1` (centres undefined), the activation is reported as inactive: -14.1%. With `COc1ccc(NC(=O)C2CCN(c3cc(C)nc4c(-c5ccc(Cl)cc5)c(C)nn34)CC2)cc1` the activation was inactive: -6.17%. In the case of `CCc1cccc(C)c1NC(=O)CSc1nc2ccncc2[nH]1`, the activation is reported as inactive: -2.95%.
